The record followed here is ChEMBL document CHEMBL1201862, “PubChem BioAssay data set” (2004).

Where “and” joins values, the source holds several entries; their conditions need not be identical. Identical values can stand only once.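 The compound was tested at five concentrations on cells cultured in 96-well plates, with a 48-hour exposure period. Abbreviation: GI50, concentration required for 50% inhibition of growth.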 Calls of active or inactive are those of the source. No stated cut-off is given here; in the data, active = GI50 up to about 1.1 µM and inactive = higher.

In the assay the test system is NCI-H322M. In words: growth of human tumour cells (NCI), 48 h.
In the case of `N=C(Cc1ccccc1)NCC(=O)O`, the GI50 is inactive: > 100 µM.

Consider `OC(Cc1ccccc1)(Cc1ccccc1)c1ccccc1`, for which the GI50 was inactive: 20.9 µM.

Turning to `CC(C)N(CC(=O)O)CC(=O)O`, the GI50 is inactive: > 100 µM.

For the molecule `CN1CCN(c2ccc([N+](=O)[O-])c3no[n+]([O-])c23)CC1`, the GI50 is inactive: 1.66 µM.

In the case of `O=C1C=CC(=O)c2c(O)c(N3CCN(c4ccccn4)CC3)cc(O)c21`, the GI50 is inactive: 6.56 µM.

For `CC(C)(C)C(=O)Nc1cccc(-c2ccc[nH]2)n1`, the GI50 is inactive: > 100 µM.

On to `Cc1ccc(-c2cc(-c3cc(-c4ccc(C)cc4C)[nH]n3)[nH]n2)c(C)c1`, for which the GI50 was inactive: 18 µM.

In the case of `Cn1ccc(=NS(=O)(=O)c2ccccc2)cc1`, the GI50 was inactive: > 100 µM.

For the molecule `Cc1ccc(O)c(C(c2cc(C)ccc2O)c2cc([N+](=O)[O-])ccc2O)c1`, the GI50 was inactive: 16.7 µM.

Consider `CC(=O)OCC(=O)O[C@@H]1[C@H]2[C@@H](OC(=O)c3ccccc3)[C@@H](C)C[C@]2(O)[C@H](OC(C)=O)[C@@]2(C)C(OC(C)=O)[C@]1(OC(C)=O)C[C@H]1C(=O)C(C)(C)C[C@@H]12` (stereo partly drawn), for which the GI50 was inactive: > 50 µM.

In the case of `COc1ccccc1/C=C1\Sc2scc(-c3ccc(O)c(O)c3)[n+]2C1=O`, the GI50 was inactive: 37.6 µM.

For the molecule `C=C(CCC/C(C)=C/C=C/[C@H](C)CCCc1ccoc1)C[C@@H]1OC(=O)[C@H](C)[C@@H]1O`, the GI50 is inactive: 3.47 µM.

With `COC(=O)C1CC/C(=N/C2c3ccccc3-c3ccccc32)N1` (stereo not drawn), the GI50 is inactive: > 100 µM.

Turning to `C[C@@H](CO)C1=C(O)C(=O)c2c(ccc3c2CCCC3(C)C)C1=O`, the GI50 was inactive: 42.6 µM.

As for `Nc1c(Cl)ncnc1NCCCCCCCCCCCCNc1ncnc(Cl)c1N`, the GI50 was inactive: 4.76 µM.

For `O=C(c1ccc(Cl)cc1)C1OC12C(=O)Nc1ccccc12` (stereo not drawn), the GI50 was inactive: 29.1 µM.

Turning to `Cc1nc(C)c(N2CCN(S(=O)(=O)N(Cc3ccccc3)Cc3ccccc3)CC2)c(O)n1`, the GI50 is inactive: > 89.1 µM.

For `Nc1ncnc2c1ncn2C1CC(OCc2ccccc2[N+](=O)[O-])C(CO)O1` (stereo not drawn), the GI50 was inactive: 22.3 µM.

For `CCOP(=O)(OCC)OC1CC(n2cc(C)c(=O)n(C)c2=O)OC1CO[Si](C)(C)C(C)(C)C` (stereo not drawn), the GI50 was inactive: > 100 µM.

For `Cc1ccccc1/N=N/c1ccc(/N=N/c2c(O)ccc3cc(S(=O)(=O)O)cc(S(=O)(=O)O)c23)c(C)c1`, the GI50 was inactive: > 100 µM.

As for `S=c1nc2c(c[nH]1)C1c3ccccc3C2c2ccccc21`, the GI50 was inactive: > 100 µM.

Turning to `COc1ccc2[nH]c3c(C)c4ncccc4c(C)c3c2c1`, the GI50 was inactive: 5.46 µM.

As to `C=C1CN(C2=NCCO2)C1`, the GI50 was inactive: > 100 µM.

As for `COC(=O)C(C(=O)C(=O)Nc1ccc(OC)cc1[N+](=O)[O-])c1nc2cc(C)c(C)cc2nc1O` (stereo not drawn), the GI50 is inactive: > 100 µM.

In the case of `CN(C)CCNc1ccc(NCCN(C)C)c2c1C(=O)c1ncsc1C2=O`, the GI50 was inactive: 13 µM.

Consider `CC(C)CC(=O)NC(NC(C)C)(C(F)(F)F)C(F)(F)F`, for which the GI50 is inactive: > 100 µM.

As for `Cc1nc2c(nc1C)-c1c(c3c(n1C)C(=O)CCC3)C(=O)C2=O`, the GI50 is inactive: 1.93 µM.

Take `CCN(CC)CC(C(C)=O)C(c1ccccc1)c1c(O)c2ccccc2oc1=O` (stereo not drawn): the GI50 is inactive: > 100 µM.

Consider `Nc1ncnc2c1ncn2C1CCC(CP(=O)(O)O)C1` (stereo not drawn), for which the GI50 was inactive: > 100 µM.

Turning to `Brc1ccc(-c2nnc(-c3nn(-c4ccccc4)c4nc5ccccc5nc34)o2)cc1`, the GI50 was inactive: > 100 µM.

For `CCCCCCCCCCSCC(CO)NC(=O)/C=C/c1c(C)[nH]c(=O)[nH]c1=O` (stereo not drawn), the GI50 is active: 710 nM and active: 1.07 µM.

Turning to `c1ccc2nc3c(nc2c1)sc1ccccc13`, the GI50 is inactive: 26.4 µM.

On to `O=C(Cc1nc2ccc(C(=O)c3ccccc3)cc2nc1O)C(=O)Nc1ccc(Br)cc1`, for which the GI50 was inactive: > 100 µM.

As for `COc1cc2ccc3c4cc(OC)c(OC(C)C)cc4cnc3c2cc1OC`, the GI50 is inactive: > 100 µM.

`N#CC(C(=O)CCC(=O)Nc1cccc(C(F)(F)F)c1)c1ccc(Cl)cc1` (stereo not drawn): the GI50 is inactive: > 100 µM.

Turning to `COc1cc2cnc3c4cc(OC)c(OC(C)C)cc4ccc3c2cc1OC`, the GI50 is inactive: > 100 µM.

As to `CC(NC(=N)N)C(=O)O` (stereo not drawn), the GI50 was inactive: > 100 µM.

As for `CC(C)c1cccc(C(C)C)c1NC(=S)NN=C1C=C(C(C)(C)C)C(=O)C(C(C)(C)C)=C1`, the GI50 is inactive: 32.3 µM.

For the molecule `Cc1ccc(OCC2OC(n3cnc4c(Br)nc(Br)nc43)CC2Oc2ccc(C)cc2)cc1` (stereo not drawn), the GI50 was inactive: 4.08 µM.

As for `O=[N+]([O-])c1ccc2c(c1)S(=O)(=O)N1Cc3ccccc3CCN21`, the GI50 was inactive: > 100 µM.

In the case of `COCC#C[C@@]1(O)CCCCC1CC(OC)OC` (stereo partly drawn), the GI50 is inactive: > 100 µM.

For the molecule `O/N=C(/CC(O)(C(F)(F)F)C(F)(F)F)c1ccccc1`, the GI50 was inactive: > 10 µM.

For the molecule `N#CC(NC12CC3CC(CC(C3)C1)C2)c1ccccc1` (stereo not drawn), the GI50 is inactive: > 100 µM.

For `COc1c(O)c2c3c(cc(C)cc3c1C(C)C)OC2`, the GI50 is inactive: > 100 µM.

`COC(=O)/C(=N\NC(N)=O)C(C(=O)C=C(C)C)C(=O)C(=O)Nc1ccc(Cl)c(Cl)c1` (stereo not drawn): the GI50 was inactive: > 100 µM.

As for `C/N=C(\Nc1cccc(C(F)(F)F)c1)SCc1ccc(N=C=S)cc1`, the GI50 was inactive: 17.5 µM.

Turning to `O=C1C2CC=CCC2C(=O)N1n1c(Cc2ccc(Cl)cc2)n[nH]c1=O` (stereo not drawn), the GI50 was inactive: > 100 µM.

For `C1CN(c2nnc(N3CCC3)nn2)C1`, the GI50 is inactive: > 100 µM.

`COC(=O)[C@@]1(C)/C(=N/NS(=O)(=O)c2ccc(C)cc2)CCC[C@@H]1C`: the GI50 is inactive: > 100 µM.

`C[P+](C)(C)C`: the GI50 is inactive: > 100 µM.

`COc1cc(C2SCC(=O)N2c2ccc(-c3ccc(-n4c(-c5ccccc5)nc5ccccc5c4=O)cc3)cc2)ccc1O` (stereo not drawn): the GI50 was inactive: > 100 µM.

Regarding `CCOC(=O)c1c[nH]c2cc3c(cc2c1=O)CCS3(=O)=O.CCOC(=O)c1c[nH]c2ccc3c(c2c1=O)S(=O)(=O)CC3`, the GI50 was inactive: > 100 µM.

With `CCCCCCCCCCCCCCCCOCC(CN(C)CCN(C)C)OCCCCCCCCCCCCCCCC` (stereo not drawn), the GI50 is inactive: > 100 µM.

For `CC(C)(N)C(=O)N[C@@H]1C(=O)N2[C@@H]1SC(C)(C)[C@@H]2C(=O)O`, the GI50 was inactive: > 100 µM.

As to `COC(=O)C1=C(C)N(NC(=O)c2cccc(Cl)c2)C(C)(O)C12CCOC2=O` (stereo not drawn), the GI50 was inactive: > 100 µM.

For the molecule `C=C(Cl)C(Cl)(CBr)CCCC(C)(C)Cl` (stereo not drawn), the GI50 is inactive: 12.5 µM.

With `CCN(CC)/N=N/c1c(C(N)=O)n[nH]c1C`, the GI50 is inactive: > 100 µM.

Turning to `NS(=O)(=O)c1nnc(NS(=O)(=O)c2ccccc2C(=O)O)s1`, the GI50 was inactive: > 100 µM.

In the case of `N=C(N)Nc1ccc(CC(N)C(=O)NCC(=O)C(CC(=O)O)c2ncc(NC(=O)C(F)(F)F)o2)cc1` (stereo not drawn), the GI50 is inactive: > 25 µM.

For `CCC/C=C/C=C/C(=O)OC1C(C)C2(O)C3C=C(C)C(=O)C3CC(COC(C)=O)=CC2C2C(C)(C)C12OC(=O)C(C)C` (stereo not drawn), the GI50 was inactive: 27 µM.

With `CC(C)(C)C(=O)N(C(=S)OCc1ccccn1)c1ccccc1`, the GI50 is inactive: 66.5 µM.

As to `O=[N+]([O-])/C(C(Cl)=C(Cl)Cl)=C1\NCCO1`, the GI50 is inactive: > 100 µM.

Turning to `CN(C)/C=N/CCN1CCOCC1`, the GI50 is inactive: > 100 µM.

Regarding `CCC1(CC)C(=O)N(C(=O)c2ccc(C)cc2)N(C(=O)c2ccc(C)cc2)C1=O`, the GI50 was inactive: > 75 µM.

`O=C1CSC(c2c[nH]c3ccccc23)N1c1ccccc1[N+](=O)[O-]` (stereo not drawn): the GI50 is inactive: > 100 µM.

As for `CCOC(=O)/C(=C\c1ccc(F)cc1)C(C)=O`, the GI50 was inactive: 20.7 µM.

As to `COC(=O)Cc1c(C2C(CC(=O)OC)c3ccccc3N2C2OC(CO)C(O)C(O)C2O)[nH]c2ccccc12` (stereo not drawn), the GI50 was inactive: > 100 µM.

For `CCCc1c(O)c(=O)c2c(OC)cc(OC)c3c4c(OC)cc(OC)c5c(=O)c(O)c(CCC)c(c1c23)c54`, the GI50 was inactive: 2.24 µM.

For the molecule `CC1(C)[C@@H]2CC[C@@]1(C)C1(S[S+]1[O-])C21Cc2ccccc2C1` (stereo partly drawn), the GI50 was inactive: > 100 µM.

Turning to `CCOC(=O)[C@@H](NC(=O)OC(C)(C)C)[C@@H](O)C(=O)OCC`, the GI50 is inactive: > 100 µM.

In the case of `CCN(CC)CCOc1ccc(N2C(=O)c3cc(OC)c(OC)cc3C2=O)cc1`, the GI50 was inactive: > 100 µM.

As to `CC(C)C1=CC23CCC4C(C)(C(=O)O)CCCC4(C)C2CC1C1C(=O)N(c2ccccc2)C(=O)C13` (stereo not drawn), the GI50 was inactive: 31.6 µM.

For the molecule `COC(=O)[C@@H]1C[C@H](c2ccc(OC)c(OC)c2)OC1=O.COC(=O)[C@H]1C[C@H](c2ccc(OC)c(OC)c2)OC1=O`, the GI50 is inactive: > 100 µM.

Turning to `COC(=O)[C@]1(C)CCC[C@]2(C)C3CC4OOC3(C=C4C(C)C)CCC21` (stereo partly drawn), the GI50 was inactive: 22.3 µM.

As to `CC/C=C/c1cc2c(cc1O)CCC1C2CC[C@@]2(C)C1CC[C@@H]2O` (stereo partly drawn), the GI50 is inactive: 2.48 µM.

`CCCCCCCC[N+](C)(C)Cc1ccc(C[N+](C)(C)CCCCCCCC)cc1`: the GI50 was inactive: 39 µM.

For `COc1ccc(C2C(Cl)C(=O)N2NC(=O)c2ccccc2O)cc1` (stereo not drawn), the GI50 was inactive: > 100 µM.

In the case of `Cc1ccc(O)c(C(=O)CCCC(=O)c2cc(C)ccc2O)c1`, the GI50 was inactive: > 100 µM.

Turning to `CN(C)c1ccccc1CN1CCCN(Cc2ccccc2N(C)C)C1c1ccncc1`, the GI50 is inactive: 11.6 µM.

With `Nc1nc(Sc2ccc([N+](=O)[O-])c3nonc23)c2nc[nH]c2n1`, the GI50 was inactive: 6.11 µM.

Turning to `O=C(O)CC(Cc1ccccc1Cl)C(=O)O` (stereo not drawn), the GI50 is inactive: > 100 µM.

For the molecule `Nc1nc(F)nc2c1ncn2C1OC(CO)C(O)C1O` (stereo not drawn), the GI50 is inactive: > 100 µM.

On to `O=[N+]([O-])c1cc(-[n+]2cc([O-])on2)ccc1F`, for which the GI50 is inactive: 17.1 µM.
